Sequences with one replicate were seen in a single cluster, so their values are uncertain.

The data set has as its system ATP. As to the kind of experiment: switch fluorescence ratio, 500 uM ATP over buffer (Cy3 cluster intensity, sum of 5 cycles each) (fold (ratio)); higher = stronger signal-on switching upon ATP binding; sequences stand for … in TCGTCGGCAGCGTCAGATGTGTATAAGAGACAGTTTTTTTTTTTTTTTTTTTTTTTTT…TC. The conditions noted are these: aptamer strand: ATP DNA aptamer (quencher-CACCTGGGGGAGTATTGCGGAGGAAGG + anchor), 100 nM annealed; ATP concentration: 500 uM; one replicate. The gist of the method:
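Switching-strand clusters labelled with Cy3 on a modified Illumina MiSeq flow-cell were annealed to 100 nM quencher-labelled ATP aptamer, imaged in selection buffer, and re-imaged after 15 min with 500 uM ATP at 22 °C. This was done over five cycles with NaOH stripping and re-annealing in between. The fluorescence ratio is summed target-cycle over summed buffer-cycle Cy3 intensity per cluster, averaged per switch-domain sequence, excluding clusters outside 100-1000 RFU.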
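Further: ATP exposure 15 min at 22 °C before imaging.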

Regarding CTGTGAAGCG, the switch fluorescence ratio stood at 0.962. For the sequence TTACTTCGAG, the switch fluorescence ratio was 1. As for ATTGCGGCAA, the switch fluorescence ratio came to 0.926. Turning to GCGACTGTTC, the switch fluorescence ratio amounted to 1.02. For the sequence GTCCATAGTG, the switch fluorescence ratio was found to be 0.997. With TGTTACCCGG the figure was 1.01. Consider CGTATGCGAG, for which the switch fluorescence ratio amounted to 0.947. With CTTTGGGACT the figure was 1.01; with AGAATTTCGG, 0.954. The same measure for CCGGCATTGT: 1.21; for ATAGAAAAAC: 1.04. Consider CCGTTCTGTC, for which the switch fluorescence ratio was determined as 1.3. TATGGCCTGC: the switch fluorescence ratio was found to be 0.942. In the case of CAATTTTTTA, the switch fluorescence ratio worked out at 0.996.

Consider AACGTCGCAC, for which the switch fluorescence ratio was 1.09. TCTTAGAGAG: the switch fluorescence ratio was found to be 0.924. In the case of CGAAGGGCCC, the switch fluorescence ratio was 0.998.

Consider GGTATTGAAT, for which the switch fluorescence ratio was found to be 1.05. Turning to TTACGAAGAG, the switch fluorescence ratio was found to be 1.03. For the sequence CTCGAGTCTG, the switch fluorescence ratio came out at 1.03. As for AACGATTCAG, the switch fluorescence ratio amounted to 0.983.

As for TGACTGATG, the switch fluorescence ratio came out at 1. The same measure for TACCGTCAAT: 1.83; for AACGCCCAAT: 1.07; for TATAAAGATG: 1.01.

As to ACATAGGTGC, the switch fluorescence ratio was 1.36.

For the sequence TCGCGACACC, the switch fluorescence ratio was found to be 1.29. Consider ACAAAAGTTA, for which the switch fluorescence ratio turned out to be 1.07. Turning to GTGGGGTACG, the switch fluorescence ratio came to 0.979. With GGTTCTTTGA the figure was 0.98; with GGGAATATAT, 0.888. With GGTAGTGGCG the figure was 0.926. As to CATAAAGGG, the switch fluorescence ratio turned out to be 1.01. Regarding CTCACCGACG, the switch fluorescence ratio worked out at 1.41.

As to GGTCTTGGGG, the switch fluorescence ratio worked out at 1.02. On to CGTCCGTTTC, for which the switch fluorescence ratio is 1.5. ATTTAACGTA: the switch fluorescence ratio worked out at 1.07. TTGCAGTCAC: the switch fluorescence ratio worked out at 1.15.

For the sequence GGGCATGA, the switch fluorescence ratio was found to be 0.98.

Take TGTCACGTCA: the switch fluorescence ratio worked out at 1.17. With GAGACAGATC, the switch fluorescence ratio worked out at 1.03. As for AACGGCGTGT, the switch fluorescence ratio was found to be 1.01. GCTCCTGGGT: the switch fluorescence ratio was determined as 1.02. TTCTTAGTTA: the switch fluorescence ratio came to 0.984.

Take AGGGAGGATA: the switch fluorescence ratio was 1.01. With CAGGCGCCTC the figure was 0.975; with CGTCAAGCGC, 1.1; with ACTCGTCACT, 1.12. Regarding GAGAAAAGAG, the switch fluorescence ratio is 1.02.

Turning to TTATATTTA, the switch fluorescence ratio is 1.01. The same measure for TTAACAAAGT: 1.25. On to TCCCCGCC, for which the switch fluorescence ratio is 1.14. With GCTGGTATGA the figure was 0.973; with ATCGGAGCAA, 3.78; with CGGCACGGGG, 1.01. In the case of GACCTAGCGA, the switch fluorescence ratio amounted to 1.59. On to GCGCCTCCGT, for which the switch fluorescence ratio was determined as 2.5. On to AGTAAAACAT, for which the switch fluorescence ratio was 0.989. The same measure for CACTGCCAAC: 1.29; for AATGTTTGAA: 1.04; for GACGTCCCTT: 0.989.

In the case of CCGGAGGTTG, the switch fluorescence ratio stood at 1.01. AGAGACGCGT: the switch fluorescence ratio was determined as 0.997. CTTAGACATT: the switch fluorescence ratio is 0.982. Consider CGATTTACAG, for which the switch fluorescence ratio was 0.99. GGCGCCACAG: the switch fluorescence ratio was 1.02.

As for GTTGTGCTTA, the switch fluorescence ratio stood at 0.948. As for TAAAGTCAAT, the switch fluorescence ratio was 1.03.

Take TAAGCGCTG: the switch fluorescence ratio came out at 0.983.

With TGGTTTACGC, the switch fluorescence ratio was found to be 0.944. Take GCCTGATAAT: the switch fluorescence ratio turned out to be 0.987.

With GGTTTAGGC, the switch fluorescence ratio stood at 1.05.

Consider TGAGTGTATA, for which the switch fluorescence ratio was determined as 0.958. With TTAGGAGCCT the figure was 0.986. With CTTCGAGGAA the figure was 1.15. With TTTCTTAAAC the figure was 0.98; with TCCGAGATGT, 1.08.

On to GGACTTCACT, for which the switch fluorescence ratio came to 1.15. Take GCGTACGTCA: the switch fluorescence ratio was found to be 1.03. For TCGACGGTTA, the switch fluorescence ratio is 1.18. The same measure for AGCCCTGCAC: 1.03. Regarding TCTTGTTGTT, the switch fluorescence ratio is 0.961. With TTGCTGCCCA the figure was 0.993. The same measure for ACCGTAGGCT: 1; for ACTCCGATA: 3.2; for TGTTCCACAC: 1. As for GCTGCATATG, the switch fluorescence ratio was found to be 1.04. In the case of TTAAGATTTG, the switch fluorescence ratio was 1.02. In the case of GGGTCTTTAT, the switch fluorescence ratio is 0.975. With CAGACACTCC, the switch fluorescence ratio is 1.19. The same measure for AACCAGCAGA: 1.06; for GGGAACTTTG: 0.976; for GGAATTTAG: 0.977. For AAGCTATATC, the switch fluorescence ratio came to 1.77.

On to CCCAGTTGCG, for which the switch fluorescence ratio came out at 1.08.

As for CGAAAAAAAC, the switch fluorescence ratio is 1.01.

Regarding AATACCGCTA, the switch fluorescence ratio was found to be 1.55. On to GGGGCCCTAT, for which the switch fluorescence ratio worked out at 0.99. For the sequence AACGGCGACT, the switch fluorescence ratio was found to be 1.09. With TCTTGCCCAT the figure was 1.01; with TTTGGACTGC, 1.1. Regarding GGAACAGAG, the switch fluorescence ratio was found to be 1.01. With CTGATTCACG the figure was 1.03.

Turning to CAACGAGGGA, the switch fluorescence ratio is 1.01.

For GGTACCAGTC, the switch fluorescence ratio came out at 1.04. As for GGGACGGTGG, the switch fluorescence ratio was found to be 0.973.

As to TGGATATATG, the switch fluorescence ratio was 0.982. Take GGAGTAGTAT: the switch fluorescence ratio was determined as 1.05. With TGTATTACGA the figure was 0.946; with TTTGTGGAAT, 1.02. For the sequence GGTTTGATTA, the switch fluorescence ratio is 0.974. With ATTTGCTGTA the figure was 0.992.

Take AGGTCAAATT: the switch fluorescence ratio was determined as 0.973. With AGTCTTTGGT, the switch fluorescence ratio was 1.01. With CCTTTGGATC the figure was 1.05; with CAGCGGGGC, 1.09. In the case of TTGGGGTTG, the switch fluorescence ratio is 0.945. Turning to CATAACTTCG, the switch fluorescence ratio came to 1.04. In the case of TCCAGCGAAG, the switch fluorescence ratio was 1.07. For the sequence AGGCTGTGTT, the switch fluorescence ratio came to 0.981.

These data come from the supplement of paper PMC10126150.
